The labels stand for the following.
B1: tRNA (parent)
chain: CUCUCGGUAGCCAAGUUGGUUUAAGGCGCAAGACUUUAAUUUAUCACUACGAAAUCUUGAGAUCGGGCGUUCGACUCGCCCCCGGGAGAUUUUUUCCUCGAGCAA

This sample is rich in variants without activity.

The data set covers variants of B1. The experiment in a line: nonsense suppression (GFP-seq) (ratio to wild type); higher = more function; SUP4oc tRNA, yeast GFP reporter sort-seq. The method, boiled down: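 Yeast were grown in raffinose/galactose medium with 80 mg/L adenine, each strain bearing a genome-integrated ochre-suppressor tRNA variant from a ~3% random-mutation library, a galactose-driven GFP ochre reporter, and RFP. After sorting into GFP/RFP bins, every bin was sequenced on an Illumina platform at phred ≥30. The GFPSEQ value, a measure of nonsense suppression, is the weighted bin median GFP/RFP relative to the unmutated parent tRNA, using each variant's estimated cell share per bin as the weight. Only variants with ≥100 reads and ≥30 cells were included.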
For the variant U4G C5G, the nonsense suppression was no more than 0.026.

Turning to U17A U21A, the nonsense suppression is 0.966.

As for C29A C56U U63A, the nonsense suppression was no more than 0.026. To G25C C80A belongs no more than 0.026; to A60U C81U, 0.818; to C11A A14U G66A G73C, no more than 0.026. To C12U G86A belongs no more than 0.026. Consider U2A G18C U35A U70A G85U, for which the nonsense suppression is no more than 0.026. On to A74C C83G A87G, for which the nonsense suppression was no more than 0.026. To U70G C83G belongs no more than 0.026.

U76A A89U: the nonsense suppression is no more than 0.026. The figure for U2C A23U is no more than 0.026; for G19A A54G G67A it is no more than 0.026; for G25C G85C it is no more than 0.026.

On to U4C C11A C75U, for which the nonsense suppression is no more than 0.026. The figure for U22C C82A is no more than 0.026; for U63C G73A G78U A89G it is no more than 0.026. As for U16A C29A, the nonsense suppression is no more than 0.026. In the case of C5G U16G C82U, the nonsense suppression is no more than 0.026. As for G10A U21G A31C, the nonsense suppression is no more than 0.026. As for A13G A54C G69U G86U, the nonsense suppression is no more than 0.026.

On to U17A C27U A62U A89G, for which the nonsense suppression is no more than 0.026.

Take C5A U17C C56G C79G G85U G88A A89C: the nonsense suppression was no more than 0.026. C1G C5U A24G A54G G59U: the nonsense suppression is no more than 0.026. C11A U58A G69A: the nonsense suppression was no more than 0.026. For C12G C27U A54U U55C, the nonsense suppression was no more than 0.026. On to U17G U21G G61U, for which the nonsense suppression stood at 0.0263. With U2G C3A U4C U35G, the nonsense suppression was no more than 0.026. Consider U22G C56U, for which the nonsense suppression is no more than 0.026. With A9C G10C C12U, the nonsense suppression is no more than 0.026. Turning to G25C G78C, the nonsense suppression was no more than 0.026. As to U2C A30G C34A G65C, the nonsense suppression is no more than 0.026.

C12A G15U: the nonsense suppression is no more than 0.026. G25A G73C: the nonsense suppression is no more than 0.026. The figure for U16C G59C is no more than 0.026; for A24G U35C it is no more than 0.026; for C80A A89C it is no more than 0.026. C80A A89U: the nonsense suppression is no more than 0.026. As to A14U G19U G32C U35A, the nonsense suppression is no more than 0.026. The figure for C27U U63G C77G is no more than 0.026; for C1U U22C A23G C27G A60U A62C it is no more than 0.026. Regarding G10A U21G C68U, the nonsense suppression is no more than 0.026. Turning to C11A A23C, the nonsense suppression is no more than 0.026.

With C5G A14U G85U, the nonsense suppression is no more than 0.026. For the variant G7U C29U C68U, the nonsense suppression is no more than 0.026.

For the variant G10A C56U G73A, the nonsense suppression is no more than 0.026. With G19A U20A A31C, the nonsense suppression is no more than 0.026. Take A14U G26U G32U: the nonsense suppression was no more than 0.026. In the case of G32A A54U G66A, the nonsense suppression was no more than 0.026. For A33C A62C G69A C82U, the nonsense suppression was no more than 0.026.

As for G66U U70A, the nonsense suppression was no more than 0.026. G66U U70C: the nonsense suppression was no more than 0.026. Turning to C79U C81U, the nonsense suppression was no more than 0.026. As to A13G G32U G59C A74G, the nonsense suppression was no more than 0.026. With C11A C80G, the nonsense suppression was no more than 0.026.

Consider U8A A23U U58G, for which the nonsense suppression is no more than 0.026. With U35G A60U, the nonsense suppression was no more than 0.026.

Regarding C11A U22C C83U, the nonsense suppression is no more than 0.026. On to C11A G67A, for which the nonsense suppression is no more than 0.026. Consider A23C U76G, for which the nonsense suppression is no more than 0.026. Regarding C1A U35A U55G, the nonsense suppression was no more than 0.026.

Consider G7U A24U G66C, for which the nonsense suppression is no more than 0.026.

In the case of G15U C75G, the nonsense suppression was no more than 0.026. To G6C G86A A87C belongs no more than 0.026; to A14U A33C A54U G88U, no more than 0.026.

C34A C72G: the nonsense suppression was no more than 0.026. To U4G A9C belongs 0.0511; to A30U C56G, no more than 0.026; to U4G A14U G26A, no more than 0.026. Take U21G G26U A60G G86U: the nonsense suppression is no more than 0.026. With G10U U16A G32C A33G G86A, the nonsense suppression is no more than 0.026. For the variant U8G A13G U16A A31G G73C, the nonsense suppression was no more than 0.026. Turning to U4A C5A U63G, the nonsense suppression was no more than 0.026. For U57A C72G G73A, the nonsense suppression is no more than 0.026. The figure for A33G U57A is no more than 0.026. Regarding U4C A14G C64G, the nonsense suppression is no more than 0.026. Take A24G A30G C68A C72U: the nonsense suppression is no more than 0.026. In the case of A9G A14U A54C G66A G88U, the nonsense suppression is no more than 0.026. Take U2G U58G C64A: the nonsense suppression is no more than 0.026.

Take G19C U63A C64U U76C: the nonsense suppression is no more than 0.026. Turning to A13U A60C G67U, the nonsense suppression was no more than 0.026. Consider G6A G15C A24C A31G C64U, for which the nonsense suppression is no more than 0.026. Consider G18A U35G, for which the nonsense suppression was no more than 0.026. The figure for U57G G84C is no more than 0.026. Regarding A14U A24U G26U C29G, the nonsense suppression is no more than 0.026.

On to C1U G84U, for which the nonsense suppression was no more than 0.026. The figure for U21C A62G U71G G88C is no more than 0.026; for C5U U8A C81A it is no more than 0.026; for C11G A60G G78U it is no more than 0.026. The figure for A30C U55A G65C is no more than 0.026; for U58G A87G it is no more than 0.026. As to C27U A54U, the nonsense suppression was 0.104. Take U17G U63C: the nonsense suppression was found to be 0.799.

In the case of G6A G15U A54U, the nonsense suppression is no more than 0.026. Regarding C11G G15A U16A U76G C82U A89C, the nonsense suppression was no more than 0.026. Turning to U17A U21C G66A, the nonsense suppression is no more than 0.026.

Take C3U C81U: the nonsense suppression stood at 0.0941. As to C5G C56G G69U U70G, the nonsense suppression was no more than 0.026. Consider A23G G69C, for which the nonsense suppression was no more than 0.026. Turning to A23U U57A C82A A87G, the nonsense suppression is no more than 0.026. With G15C A62G A87G, the nonsense suppression is no more than 0.026.

Regarding U4A G28U G84A, the nonsense suppression was no more than 0.026. To G25A C27A belongs no more than 0.026; to C3U G18U, no more than 0.026. Take A30U G78A: the nonsense suppression was no more than 0.026. The figure for U4G G10U A14U U63A is no more than 0.026; for G15C G32U G86A G88A it is no more than 0.026; for U35G C56A G61U U63A it is no more than 0.026.

On to G7U C82G G88U, for which the nonsense suppression was no more than 0.026. The figure for G10U U16G G73A U76C is no more than 0.026. With C12A A24U G88A, the nonsense suppression was no more than 0.026. To G10C G67C C80G A87U belongs no more than 0.026; to A9G A33U C80U, no more than 0.026; to A14G U16G A24G C27G U58C A60G G69C, no more than 0.026. To G66C G78A belongs 0.0452. With A31C C56A C81G, the nonsense suppression was no more than 0.026. With C77U G84U, the nonsense suppression was no more than 0.026. The figure for U4C G26C G73U is no more than 0.026.

Regarding U4C A23U U76C G85C, the nonsense suppression is no more than 0.026. To U2C C27U C83G belongs no more than 0.026. As to G15A A23U A54G, the nonsense suppression was no more than 0.026. On to G73U C75U, for which the nonsense suppression is no more than 0.026. The figure for C5G G19C G28C G88C is no more than 0.026; for U16C U70C it is no more than 0.026.

Turning to U4G U21G G32A U58G G59U G69A, the nonsense suppression was no more than 0.026. U4G C11A A31C A54C: the nonsense suppression is no more than 0.026.

On to U17C C34A G67C G86U, for which the nonsense suppression was no more than 0.026. To U8A G65A belongs no more than 0.026. On to A33C G61A A62G G73C, for which the nonsense suppression was no more than 0.026.

Consider C29G G69C G86C, for which the nonsense suppression is no more than 0.026. With A13U U16C U71C, the nonsense suppression is no more than 0.026. For C3A C82G, the nonsense suppression is no more than 0.026. To U21C U70C U76C C77U belongs no more than 0.026.

With C3G A14G C81U, the nonsense suppression is no more than 0.026. As for U21G U22G G25A A62U C79G A89G, the nonsense suppression was no more than 0.026. For U20C G32C U55C C83A, the nonsense suppression was no more than 0.026. The figure for G6U G7C A33U is no more than 0.026; for C3A U8G C79A it is no more than 0.026. As to C12A A14C, the nonsense suppression is no more than 0.026. On to U4A U63C U76C G78C G85A, for which the nonsense suppression was no more than 0.026. With U17A G18C A87U, the nonsense suppression is no more than 0.026. To G10U U70C belongs no more than 0.026; to U2C C72A, no more than 0.026; to G10C U58C G84C, no more than 0.026. Take U57A G78A: the nonsense suppression was no more than 0.026. The figure for U2A G15C C64U is no more than 0.026.

For G78C G88A, the nonsense suppression is no more than 0.026. Turning to G6A U22C, the nonsense suppression is no more than 0.026.

Regarding U22C C34U C77A G84U, the nonsense suppression was no more than 0.026. For A31U A62G, the nonsense suppression is no more than 0.026. On to A9U A30C A87U, for which the nonsense suppression was no more than 0.026. In the case of A33G G73C C81A, the nonsense suppression was no more than 0.026. To U8C G15A C80U G86U belongs no more than 0.026. To C3U G26U C80A G88U belongs no more than 0.026; to C34G G67C A87U, no more than 0.026; to G19C A33G G61A, no more than 0.026.

As to C11A G18A C27G U76G, the nonsense suppression was no more than 0.026. Regarding U8A G69A, the nonsense suppression is no more than 0.026. Take C56G G66C: the nonsense suppression is no more than 0.026. Turning to G15A G19A A30U U63G U76C, the nonsense suppression was no more than 0.026. As to G32U A33G C68A C82A, the nonsense suppression was no more than 0.026. Turning to A30C G65A G66C C72A G84C A87G, the nonsense suppression is no more than 0.026. To G67C G84A belongs no more than 0.026; to U16C G69C C80U, no more than 0.026; to A24U A62C C80A G88C, no more than 0.026. Take C3A U70G: the nonsense suppression is no more than 0.026. On to A24U C29U G66A, for which the nonsense suppression was no more than 0.026.

These data come from the RNAGym collection of RNA variant scans (doi:10.1101/gad.245936.114).
